The source of these data is PubChem BioAssay AID485344 (National Center for Advancing Translational Sciences (NCATS), 2010).

About 6,900 (2%) of roughly 340,000 compounds were called active. No stated cut-off is given here; in the data, active means inhibition above about 30%; inactive means below that, where a call was filed. The entries are a selection whose mix differs from that of the whole data set. Where no call is shown, the source filed none.

Chain of UniProt P14416 (P14416 whole entry, looked up): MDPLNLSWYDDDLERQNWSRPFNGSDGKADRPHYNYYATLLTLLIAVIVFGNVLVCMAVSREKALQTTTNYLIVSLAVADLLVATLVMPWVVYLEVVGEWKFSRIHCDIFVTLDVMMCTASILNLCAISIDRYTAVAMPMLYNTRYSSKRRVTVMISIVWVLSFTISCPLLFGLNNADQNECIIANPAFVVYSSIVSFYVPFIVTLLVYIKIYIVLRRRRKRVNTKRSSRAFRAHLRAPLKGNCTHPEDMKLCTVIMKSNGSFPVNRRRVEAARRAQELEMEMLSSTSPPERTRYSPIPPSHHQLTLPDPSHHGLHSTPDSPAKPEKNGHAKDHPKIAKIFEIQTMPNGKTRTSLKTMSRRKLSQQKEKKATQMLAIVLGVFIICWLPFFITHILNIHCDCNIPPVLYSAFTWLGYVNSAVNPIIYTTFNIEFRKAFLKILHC

This assay addresses D(2) dopamine receptor (Homo sapiens) (UniProt P14416). In words: HTS Assay for Allosteric Antagonists of the Human D2 Dopamine Receptor: Primary Screen for Antagonists. Further: 0% is about no effect. Conditions: HEK293 TREx D2 cells, calcium flux, dopamine EC80; at 10 µM; stronger effect = higher value. Summed up:
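Overnight-induced (tetracycline, 30 C) HEK293 T-REx cells carrying force-coupled D2 receive a no-wash calcium dye, then compound, then EC80 dopamine at 180 s; signals are read kinetically throughout.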
With `COc1ccc(NC(=O)NCC2CCN(Cc3ccccc3F)CC2)c(OC)c1`, the inhibition was 14.1%.

Turning to `COc1ccccc1CNC(=O)c1ccc2c(c1)CCN2S(=O)(=O)c1ccc(Cl)cc1`, the inhibition amounted to 10%.

On to `COC(=O)c1cc(S(=O)(=O)N2CCN(c3ccc(F)cc3)CC2)cn1C`, for which the inhibition came out at 18%.

On to `COc1ccc2nc(N(Cc3cccnc3)C(=O)COc3ccccc3)sc2c1`, for which the inhibition is -14.6%.

On to `CCCCN1C(=O)C(O)(CC(=O)c2ccccc2OC)c2ccccc21` (stereo not given), for which the inhibition is active: 33.1%.

Consider `COC(=O)c1ccc(Cn2nnc3c(=O)[nH]c(C4CCCN(S(=O)(=O)c5ccccc5)C4)nc32)cc1` (stereo not given), for which the inhibition is -0.647%.

On to `Cn1cc(C(=O)NCCc2ccc(Cl)cc2)c(=O)c2cc(S(=O)(=O)N3CCCCC3)ccc21`, for which the inhibition was -1.73%.

Take `O=C(c1ccc2c(c1)N(Cc1ccccc1)C(=O)c1ccccc1S2=O)N1CCC(Cc2ccccc2)CC1` (stereo not given): the inhibition is -0.306%.

With `CCc1cccc(C)c1NC(=O)C1=C(C)C(=O)OC12CCC(C)CC2` (stereo not given), the inhibition turned out to be 14.8%.

With `CCCOc1ccc(C2=NC(c3ccc(F)cc3)=Nc3ccc(OC)cc3N2)cc1`, the inhibition turned out to be 5.36%.

With `O=S(=O)(c1ccc(SCCOc2cccc(Br)c2)nc1)N1CCCC1`, the inhibition is active: 42.3%.

For the compound `COc1ccccc1Nc1ncc(C(=O)Nc2ccc(OC)c(OC)c2)c2ccccc12`, the inhibition was -9.82%.

In the case of `Cc1ccc(C(=O)Nc2ccc(C(=O)OCc3cc(=O)n4c5c(sc4n3)CCCC5)cc2)cc1`, the inhibition was -9.82%.

As for `Cc1c(-c2ccccc2)n(-c2ccccc2O)c2nc3c(c(=O)n(C)c(=O)n3C)n12`, the inhibition came to 7.31%.

`CCCCC(=O)NNC(=S)NC(=O)C(c1ccccc1)c1ccccc1`: the inhibition was active: 40.2%.

On to `O=S(=O)(c1ccc(-c2cnc(C3CC3)o2)cc1)N1CCN(c2cccc(Cl)c2)CC1`, for which the inhibition was found to be 13.6%.

Consider `CCOc1ccccc1C(=O)Nc1cc(-c2ccc(C)cc2)no1`, for which the inhibition was -2.48%.

With `Cc1cccc(S(=O)Cc2ccc(C(=O)NC3CCCCCC3)o2)c1` (stereo not given), the inhibition was -1.62%.

Regarding `CCCc1cc(C(=O)Nc2ccc(F)c(Cl)c2)no1`, the inhibition is active: 35.1%.

For `O=C(CSc1ncc2c(n1)-c1cc(Cl)ccc1N(Cc1ccccc1F)S2(=O)=O)Nc1cccc(C(F)(F)F)c1`, the inhibition was determined as 1.05%.

`CCCCCN1C(C(=O)c2ccccc2)=C(NC(C)=O)c2ccccc2S1(=O)=O`: the inhibition is -15.4%.

As to `COC(=O)c1cc(NC(=O)c2ccc3c(c2)N(Cc2cccc(Cl)c2)C(=O)c2ccccc2S3=O)cc(C(=O)OC)c1` (stereo not given), the inhibition was -1.79%.

Regarding `CC(=O)c1cccc(NC(=O)c2c(C)nn(-c3ccc(F)cc3)c2-n2cccc2)c1`, the inhibition is -0.521%.

For the compound `Cc1cc(C)cc(C(=O)Nc2nnc3n2CCS3)c1`, the inhibition was -17.5%.

Consider `CCOC(=O)c1ccc(NC(=O)CSc2nccn2Cc2ccc(OC)cc2)cc1`, for which the inhibition came to 1.76%.

Take `Cc1cc2ccccc2n2c(SCC(=O)Nc3cccc(C(F)(F)F)c3)nnc12`: the inhibition amounted to 3.49%.

As to `CCCn1c2ccccc2c2cnn(CC(=O)Nc3ccc(C)cc3Br)c(=O)c21`, the inhibition worked out at 0.901%.

For the compound `CNc1oc(-c2ccc(COc3ccc(C)cc3)o2)nc1C#N`, the inhibition is -6.86%.

Turning to `COc1ccc(OCc2nc3c4c(-c5ccc(OC)cc5)c(-c5ccc(OC)cc5)oc4ncn3n2)cc1`, the inhibition was 28.2%.

Regarding `CCOc1ccccc1NC(=O)c1cnc(N2CCOCC2)c2ccccc12`, the inhibition was -0.673%.

As for `COc1ccc(C)cc1NC(=O)CCNS(=O)(=O)c1cccc2nonc12`, the inhibition is -0.186%.

Turning to `CCc1ccc(NC(=O)c2sc3nc(C)c(Cl)c(C)c3c2NC(=O)c2ccccc2)cc1`, the inhibition was determined as 0.401%.

Turning to `Cc1nn(-c2ccccc2)c2nc(C3CC3)cc(C(=O)NCc3ccccc3Cl)c12`, the inhibition is -2.47%.

On to `Cc1ccc(OCC(O)CN2CCN(c3ccccc3)CC2)cc1` (stereo not given), for which the inhibition is active: 62.2%.

Turning to `Cc1cccc(CNC(=O)c2sc3ncnc(N(C)C4CCCCC4)c3c2C)c1`, the inhibition was 17.2%.

On to `CC(C)Nc1ccc(-c2nc(-c3ccccn3)no2)cc1[N+](=O)[O-]`, for which the inhibition worked out at 11%.

In the case of `CCOc1ccccc1NC(=O)c1ccc2c(Cl)c3c(nc2c1)CCCC3`, the inhibition worked out at 21.7%.

As for `COc1ccc(CCNC(=O)COC(=O)C2CC2)cc1`, the inhibition is active: 31.3%.

As for `COc1cccc(CNc2nc3c(-c4cccc(C)c4)nnn3c3ccccc23)c1`, the inhibition is -14%.

As to `CCOc1ccc(-c2nnc(SCC(=O)NCCc3ccccc3)nc2-c2ccc(OCC)cc2)cc1`, the inhibition was 7.74%.

As to `O=C(OCc1cc(=O)n2nc(-c3cccs3)sc2n1)c1ccccc1Br`, the inhibition was -4.86%.

As to `CC(=O)Nc1ccc(NC(=O)CCC(=O)c2ccc(C)cc2)cc1`, the inhibition came to 0.136%.

Turning to `Cc1cc(NC(=O)C(C)(C)Oc2ccc(Cl)cc2)cc(-c2nc3ncccc3o2)c1O`, the inhibition stood at 7.8%.

With `CCN(C(=O)c1cnc(N2CCOCC2)c2ccccc12)c1cc(C)ccc1C`, the inhibition was -6.25%.

On to `CC(C)N(Cc1ccccc1)C(=O)CN1C(=O)COc2ccc(S(=O)(=O)N3CCCCCC3)cc21`, for which the inhibition is 12.5%.

For the compound `CC12CCC(=O)N1C(C(=O)N1CCN(c3cccc(Cl)c3)CC1)CS2` (stereo not given), the inhibition was active: 70.7%.

As for `COc1ccc(CCNC(=O)c2cc(S(=O)(=O)N3CCCC(C)C3)cn2C)cc1OC` (stereo not given), the inhibition was 9.18%.

For `O=C(O)c1ccc2c(c1)N(Cc1ccc(F)cc1Cl)C(=O)c1ccccc1S2`, the inhibition turned out to be 9.28%.

As to `Cc1ccc(S(=O)(=O)NNC(=O)CCC(=O)Nc2ccc(C)c(C)c2)cc1`, the inhibition was active: 31.5%.

`Cc1ccc(C(=O)CN(C(=O)c2ccc(Cl)cc2)N2C(=O)CCC2=O)cc1`: the inhibition is active: 30.5%.

As for `COc1ccc(NC(=O)CCS(=O)(=O)c2nc(-c3ccc4c(c3)OCO4)cc(C(F)(F)F)n2)c(OC)c1`, the inhibition is 4.4%.

For `CCCS(=O)(=O)N1CCCC(C(=O)NCCCN2CCN(c3ccccc3F)CC2)C1` (stereo not given), the inhibition was active: 38.1%.

As for `CC(=O)N1c2c(cc(Br)cc2S(=O)(=O)NCc2ccccc2Cl)CC1C` (stereo not given), the inhibition is -21.7%.

As to `Cc1ccc2oc(-c3ccc(NC(=O)c4cccc(F)c4)c(C)c3)nc2c1`, the inhibition was determined as 13.1%.

Consider `COc1cc(Cl)c(NC(=O)CN(C)S(=O)(=O)c2ccc3c(c2)CCCC(=O)N3)c(OC)c1`, for which the inhibition was found to be 5.71%.

As for `COc1cc(NC(=O)N2CCC(CN3CCc4ccccc4C3)CC2)cc(OC)c1`, the inhibition is -17.9%.

`COc1ccc(C(=O)NCC(c2ccco2)N(C)C)cc1S(=O)(=O)NCc1ccc(Cl)cc1` (stereo not given): the inhibition is active: 77.7%.

`Cc1ccc(-c2nnc(Nc3cccc(O)c3)c3ccccc23)cc1S(=O)(=O)N1CCCCC1`: the inhibition is -6.99%.

For `CCOc1ccc(OCC)c(NC(=O)c2csc3c2CCCC3)c1`, the inhibition came to 2.74%.

As to `COc1ccccc1NC(=O)c1oc2ccccc2c1NC(=O)COc1ccccc1OC`, the inhibition turned out to be 0.0538%.

Turning to `COc1ccc(Cl)cc1NC(=O)CSc1nc(=O)[nH]c2c1CCCC2`, the inhibition was 17%.

Consider `CCOc1ccc(NC(=O)Cn2cc(C(=O)c3ccccc3)c(=O)c3cc4c(cc32)OCO4)cc1`, for which the inhibition was -3.18%.

With `Cc1ccc(Cn2c(=O)n(-c3ccc(C)c(C)c3)c(=O)c3c(C)c(C)sc32)cc1`, the inhibition is -3.03%.

Turning to `CCOC(=O)c1c(C)[nH]c(C)c1S(=O)(=O)N1CCC(C(=O)NCc2ccc(N(C)C)cc2)CC1`, the inhibition was -0.325%.

As to `CN(C)C1(CNC(=O)COc2ccc(C(C)(C)C)cc2)CCCCC1`, the inhibition stood at 3.81%.

Turning to `COc1ccccc1OCC(=O)Nc1c(C(=O)c2ccc(C)cc2)oc2ccccc12`, the inhibition was found to be 12%.

Take `O=C(Nc1ccc2c(c1)OCO2)c1cc(-c2ccc(Cl)cc2)on1`: the inhibition was -1.62%.

Consider `CCCCCn1c(-c2cccc(C)c2)nc2ccccc21`, for which the inhibition worked out at 7.53%.

Consider `COc1ccccc1CNS(=O)(=O)c1ccc(N2CCCCS2(=O)=O)cc1`, for which the inhibition was 6.12%.

Consider `COc1ccc(OC)c(CCNC(=O)C(C)n2c(C)c3cnn(-c4ccccc4)c(=O)c3c2C)c1` (stereo not given), for which the inhibition was 3.34%.

For the compound `COc1ccc(Cl)cc1C(=O)Nc1c2c(nn1-c1ccc(Cl)cc1)CS(=O)(=O)C2`, the inhibition was 27%.

With `Cc1cc(C)cc(-n2ccnc(NCc3ccc(F)cc3)c2=O)c1`, the inhibition stood at 25.2%.

As for `COCCCNCCCOc1ccc(C)cc1Br`, the inhibition was active: 38.4%.

For `O=C1COc2cc(S(=O)(=O)CCC(=O)N3CCN(c4ccccc4)CC3)c(Cl)cc2N1`, the inhibition is -16.6%.

For the compound `Cc1ccc(S(=O)(=O)NCCc2nnc3ccc(SCC(=O)Nc4ccc(OC(F)(F)F)cc4)nn23)cc1`, the inhibition worked out at 0.327%.

On to `CCCc1ccc(-c2ccc(C(=O)Oc3ccc(Br)cc3)cc2)nc1`, for which the inhibition worked out at 1.8%.

Turning to `CCOc1ccc(NC(=O)Cn2c(=O)c(CNc3ccccc3)cc3cc4c(cc32)OCCO4)cc1`, the inhibition stood at 8.74%.

Regarding `CCCCCn1c(CNC(=O)c2ccc(F)cc2)nc2ccccc21`, the inhibition is -21.5%.

Consider `CCc1ccc(-n2nc(C)c3c(C(=O)N4CCN(c5cccc(Cl)c5)CC4)cc(C)nc32)cc1`, for which the inhibition amounted to 9.33%.

As to `Cc1nn(CC(=O)N2CCN(c3cccc(Cl)c3)CC2)c(=O)c2c1sc1ccccc12`, the inhibition was found to be 14.1%.

On to `CCOC(=O)c1ccc(NC(=O)CCc2c(C)nc3c(c(C)nn3C(C)(C)C)c2C)cc1`, for which the inhibition is 1.45%.

For the compound `CC(C)CCNC(=O)c1ccc(Cn2c(SCC(N)=O)nc3ccccc3c2=O)cc1`, the inhibition is 14.4%.

Take `CCOc1cc(C(=O)OCc2cc(=O)n3nc(C4CC4)sc3n2)cc(OCC)c1OCC`: the inhibition was -16.3%.

On to `COc1cc(OC)c(NC(=O)NCc2cccn2Cc2ccccc2)cc1Cl`, for which the inhibition was determined as 4.21%.

For `CCc1ccccc1NC(=O)Cn1c(=O)n(-c2ccc(C)c(C)c2)c(=O)c2oc3ccccc3c21`, the inhibition was 4.59%.

In the case of `COc1ccc(S(=O)(=O)NCCc2sc(-c3cccc(C)c3)nc2C)cc1`, the inhibition is -1.63%.

Regarding `Cc1ccc(CCNC(=O)c2cccc(Nc3nc4ccccc4nc3-n3nc(C)cc3C)c2)cc1`, the inhibition turned out to be 18.4%.

For `COc1cc(Br)ccc1C1C(C(=O)Nc2ccc(C)cc2C)=C(C)Nc2nnnn21` (stereo not given), the inhibition was -15.5%.

As for `CCN(C(=O)c1cc2cc(Br)cc(OC)c2oc1=O)c1ccccc1`, the inhibition stood at 1.15%.

Regarding `O=C(NC1CCCCCC1)c1ccc(CS(=O)c2ccc(Br)cc2)o1` (stereo not given), the inhibition is -2.37%.

Turning to `O=S(=O)(Nc1ccc(-c2ccc(N3CCCC3)nn2)cc1)c1ccc(OC(F)(F)F)cc1`, the inhibition amounted to 3.75%.

As for `COc1cccc(C2c3c(-c4ccccc4O)n[nH]c3C(=O)N2Cc2cccnc2)c1` (stereo not given), the inhibition was determined as 22.8%.

For the compound `COC(=O)c1ccc(NC(=O)CCN2CCN(c3ccccc3)CC2)cc1`, the inhibition is active: 50.3%.

In the case of `CC(C)CCNC(=O)c1nn(C)c2c1CSc1ccccc1-2`, the inhibition came to 27%.

For the compound `COC(=O)c1c(-c2cccs2)csc1NC(=O)c1cc(OC)c(OC)c(OC)c1`, the inhibition is -0.059%.

By inhibition is commonly meant the relative decrease from the control value, in per cent.
